According to FireProtDB (doi:10.1021/bi025807d):

Conditions: Homo sapiens, pH 7.4, sodium phosphate 10 mM, reversible: YES; for denaturant m value / denaturant midpoint (higher = more stable) / unfolding free energy: 25 °C, GdnHCl

## Apolipoprotein A-I wild type (chain not printed)
CD
  denaturant m value: 2.4 kcal/mol/M
  denaturant midpoint (higher = more stable): 1 M
  unfolding free energy: 2.5 kcal/mol
Fluorescence
  denaturant m value: 3.7 kcal/mol/M
  denaturant midpoint (higher = more stable): 1.1 M
  unfolding free energy: 4 kcal/mol
Thermal, CD
  Tm: 59 °C
  unfolding enthalpy (van 't Hoff): 40 kcal/mol
